# Test results reported in PubChem BioAssay AID624296 (National Center for Advancing Translational Sciences (NCATS), 2012).
# Screen size: about 350,000 compounds; about 9,900 (2.8%) were called active. Inconclusive means that the source gave no clear call. Such entries were picked first, then a sample of the others. Calls follow the shape of the dose curve; as a rule, active = well fitted activation curve with a large enough effect; inconclusive = small, poorly fitted or top-dose-only effect; inactive = no such curve, though single readings can be large or run the other way. No potency is given beside an inconclusive call; the fits are too rough.
# Assay: A quantitative high throughput screen for small molecules that induce DNA re-replication in MCF 10a normal breast cells. Also: nearly all actives have a fitted effect of over 50% in size.
# Details: MCF 10A DNA re-replication, Hoechst nuclear intensity, 48 h; series mostly up to 46.1 µM
# Potency is read from the fitted curve at half-maximal effect; tags tell the direction and shape of the fitted curve.
row,SMILES,Potency
1,CCn1c(=O)c(C(=O)NNS(=O)(=O)c2ccc(C)cc2)c(O)c2ccccc21,"inconclusive [activator, single point]"
2,CC1=Nc2ccccc2/C1=C/c1c(N)n2c(S(=O)(=O)CC(C)C)nsc2nc1=O,active: 14.6 µM
3,Cc1ccc(-c2noc(CSc3nnc(CCc4ccccc4)n3-c3ccccc3)n2)cc1,"inconclusive [activator, single point]"
4,O=C(Nc1ncc(Cc2cc(Cl)ccc2Cl)s1)c1ccc([N+](=O)[O-])cc1,"inconclusive [activator, partial curve, poor fit]"
5,COc1cccc(N2CCN(C(=O)c3cc(C)oc3C)CC2)c1,"inconclusive [activator, single point]"
6,CC(C)OCCCN1CC(=O)N2C(c3ccccc3)c3[nH]c4ccccc4c3C[C@H]2C1=O (some centres undefined),inactive
7,Cc1nc(NCc2ccccc2)sc1C(=O)Nc1ccccc1,"inconclusive [activator, full curve, poor fit]"
8,CCc1ccc(-c2nc(C(N)=O)c3[nH]c(=O)n(-c4ccccc4OC)c3n2)cc1,"inconclusive [activator, full curve, poor fit]"
9,CCNC(=S)N(CCc1c(C)[nH]c2ccc(C)cc12)Cc1cccs1,"inconclusive [activator, partial curve, poor fit]"
10,C/C(=N\NC(=O)C1CCCN(S(=O)(=O)c2ccccc2)C1)c1ccccn1 (centres undefined),"inconclusive [activator, partial curve, poor fit]"
11,Cc1ccc(CN(C)C(=O)c2ccccc2NC(=O)c2ccccc2)o1,inactive
12,Cc1ccc(S(=O)(=O)N2CCC(C(=O)NCc3ccccc3CN3CCCC3)CC2)cc1,"inconclusive [activator, single point]"
13,Cc1ccc(-c2nc(SCC(=O)NCC3CCCO3)c(-c3ccccc3)[nH]2)cc1 (centres undefined),inactive
14,CN(C)c1ccc(N/C=C/C(=O)c2ccccc2)cc1,"inconclusive [activator, partial curve, poor fit]"
15,Cc1c(C)n(Cc2ccccc2)c2ncnc(NCCCN(C)C)c12,"inconclusive [activator, partial curve, poor fit]"
16,Oc1c(Cl)cc(Cl)cc1C=Nc1ccc2c(c1)OCCO2,"inconclusive [activator, single point]"
17,COc1ccc(-c2nc(C(=O)NCC3CCCO3)cc3c2[nH]c2ccccc23)cc1 (centres undefined),"inconclusive [activator, single point]"
18,COc1ccc(NS(=O)(=O)c2cc(NC(=O)c3cnccn3)ccc2OC)cc1Br,"inconclusive [activator, single point]"
19,Cc1onc(-c2c(F)cccc2Cl)c1C(=O)Nc1nc2c(s1)CCCC2,"inconclusive [activator, partial curve, poor fit]"
20,CC(=O)C(C(C)=O)c1c(Cl)c(O)c(O)c2c(C(=O)c3ccccc3)coc12,"inconclusive [activator, partial curve]"
21,O=C(CN1C(=O)NC2(CCCCC2)C1=O)NNC(=O)C1CC1,inactive
22,COc1cc(C(=S)N2CCCC2)cc(Cl)c1OCC(=O)Nc1ccc(C)cc1C,"inconclusive [activator, single point]"

row,SMILES,Potency
1,COc1ccc(/C=C/C(=O)Nc2c(C)nn(C)c2C)cc1COc1ccc(Br)cc1,active: 4.61 µM
2,COc1ccc(CCN2CC(C(=O)NCCc3ccccc3C)CCC2=O)cc1 (centres undefined),inactive
3,O=C(NC(=S)Nc1ccc(N2CCOCC2)c(Cl)c1)C(c1ccccc1)c1ccccc1,inactive
4,CC(=O)Cc1nsc(NC(=O)c2ccc(-c3cc(C(F)(F)F)ccc3Cl)o2)n1,active: 3.26 µM
5,O=C(c1ccc(COc2ccccc2Cl)o1)N1CCCC1,"inconclusive [activator, partial curve, poor fit]"
6,CC(=O)Oc1c(Cl)cc(N(C(C)=O)S(=O)(=O)c2ccccc2)c2ccccc12,"inconclusive [activator, single point]"
7,CC1CN(C(C)C)C(=S)NC1=O (centres undefined),inactive
8,O=C(N/N=C/c1ccncc1)c1cc(-c2ccc(Br)s2)[nH]n1,"inconclusive [activator, partial curve, poor fit]"
9,O=C(CCNc1cccc(C(F)(F)F)c1)c1ccco1,"inconclusive [activator, single point]"
10,CCC1CSC(Nc2ccc(C(=O)/C=C/c3ccc(Br)cc3)cc2)=N1 (centres undefined),active: 16.4 µM
11,Cc1ccc(-n2nccc2-c2nn(-c3cccc(C(F)(F)F)c3)c(=O)n(C)c2=O)cc1,"inconclusive [activator, single point]"
12,CN(Cc1ccccc1)C(=O)c1ccc(NC(=O)Cc2cccc(NC(=O)C3CCCN(C(=O)C4CCCCC4)C3)c2)cc1 (centres undefined),"inconclusive [activator, single point]"
13,CCn1c(COc2ccc(=O)n(-c3ccccc3)n2)nnc1SCc1ccc(OC)cc1,inactive
14,OCc1c(OCc2cccc(F)c2)ccc2ccccc12,inactive
15,Cc1cc2cc(C=C(C#N)C#N)c(Cl)nc2cc1C,active: 18.4 µM
16,C=CCn1c(O)c(N=NC(=O)CNC(=O)c2cccs2)c2ccccc21,"inconclusive [activator, single point]"
17,CCCN(CCC)c1nc(N(CCC)CCC)[nH]c(=O)n1,"inconclusive [activator, single point]"
18,COc1cc(/C=N/NC(=S)NCc2ccco2)cc(OC)c1OC,inactive
19,Cc1occc1C(=O)NNC(=O)c1ccccc1C(=O)O,inactive
20,O=C(Nc1ccc(Br)cn1)c1cccc(C(=O)Nc2ccc(Br)cn2)c1,inactive
21,Cc1ccc(-c2cc(C(=O)Nc3ccccc3C(N)=O)c3ccccc3n2)o1,"inconclusive [activator, single point]"
22,COc1ccc([N+](=O)[O-])cc1NC(=S)NC(NC(=O)Cc1ccc(OC)c(OC)c1)C(Cl)(Cl)Cl (centres undefined),inactive
